Experimental findings from publication PMC12820563 are described below.

Some of the results follow. The list includes weakly bound sequences.

For the experiment, the target named is T1, MBP-FoxP3dN (UniProt Q99JB6).
T1 sequence: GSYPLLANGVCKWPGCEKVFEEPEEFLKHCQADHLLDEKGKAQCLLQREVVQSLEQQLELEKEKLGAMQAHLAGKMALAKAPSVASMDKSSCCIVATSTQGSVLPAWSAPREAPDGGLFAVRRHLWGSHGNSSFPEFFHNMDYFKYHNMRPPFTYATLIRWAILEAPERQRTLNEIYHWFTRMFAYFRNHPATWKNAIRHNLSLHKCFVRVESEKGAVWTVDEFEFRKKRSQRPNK
Kind of experiment: PD-seq (MBP pull-down with sequencing). To be noted: 20 mM Tris-HCl pH 7.5, 100 mM NaCl, 1.5 mM MgCl2, 0.4 uM protein, 0.1 uM dsDNA library, 30 min, room temperature, amylose pull-down; high values mean tight binding; double strand, one strand shown.
On to “GATGATTGTTCTCCCAGCTGATGAATTCTGCCGTTCGAGTAAACAAATTTTCCTAATCTTTCTGTTCAAGCGCCATCTAC”, for which the binding signal (RPM ratio (pull-down/input)) is 1.49. For the sequence “GATGATTGTTCTCCCAGCTGATGAATTTGTGTGGTCGAGTAAACAAATTTTCCTAATCTTTCTGTTCAAGCGCCATCTAC”, the binding signal (RPM ratio (pull-down/input)) is 5.5.

Consider “GATGATTGTTCTCCCAGCTGATGAATTAGAGAAGTCGAGTAAACAAATTTTCCTAATCTTTCTGTTCAAGCGCCATCTAC”, for which the binding signal (RPM ratio (pull-down/input)) is 0.226. The result for “GATGATTGTTCTCCCAGCTGATGAATTTGGAACCTCGAGTAAACAAATTTTCCTAATCTTTCTGTTCAAGCGCCATCTAC” reads 0.33. As to “GATGATTGTTCTCCCAGCTGATGAATTGTTTATGTCGAGTAAACAAATTTTCCTAATCTTTCTGTTCAAGCGCCATCTAC”, the binding signal (RPM ratio (pull-down/input)) stood at 7. Regarding “GATGATTGTTCTCCCAGCTGATGAATTTTGCACTTCGAGTAAACAAATTTTCCTAATCTTTCTGTTCAAGCGCCATCTAC”, the binding signal (RPM ratio (pull-down/input)) is 1.95.

“GATGATTGTTCTCCCAGCTGATGAATTGCACACTTCGAGTAAACAAATTTTCCTAATCTTTCTGTTCAAGCGCCATCTAC”: the binding signal (RPM ratio (pull-down/input)) came out at 1.08.

On to “GATGATTGTTCTCCCAGCTGATGAATTAGATTTGTCGAGTAAACAAATTTTCCTAATCTTTCTGTTCAAGCGCCATCTAC”, for which the binding signal (RPM ratio (pull-down/input)) was found to be 1.97.

As to “GATGATTGTTCTCCCAGCTGATGAATTTCCTGTCTCGAGTAAACAAATTTTCCTAATCTTTCTGTTCAAGCGCCATCTAC”, the binding signal (RPM ratio (pull-down/input)) is 0.322.

Turning to “GATGATTGTTCTCCCAGCTGATGAATTGGGCATCTCGAGTAAACAAATTTTCCTAATCTTTCTGTTCAAGCGCCATCTAC”, the binding signal (RPM ratio (pull-down/input)) came out at 6.41. Take “GATGATTGTTCTCCCAGCTGATGAATTTAGGTTTTCGAGTAAACAAATTTTCCTAATCTTTCTGTTCAAGCGCCATCTAC”: the binding signal (RPM ratio (pull-down/input)) turned out to be 0.862. “GATGATTGTTCTCCCAGCTGATGAATTCTACAGTTCGAGTAAACAAATTTTCCTAATCTTTCTGTTCAAGCGCCATCTAC”: the binding signal (RPM ratio (pull-down/input)) amounted to 0.354. On to “GATGATTGTTCTCCCAGCTGATGAATTGAAGTTGTCGAGTAAACAAATTTTCCTAATCTTTCTGTTCAAGCGCCATCTAC”, for which the binding signal (RPM ratio (pull-down/input)) was found to be 0.722.

For the sequence “GATGATTGTTCTCCCAGCTGATGAATTAAGACCGTCGAGTAAACAAATTTTCCTAATCTTTCTGTTCAAGCGCCATCTAC”, the binding signal (RPM ratio (pull-down/input)) was determined as 0.337.

Turning to “GATGATTGTTCTCCCAGCTGATGAATTTTTCGGCTCGAGTAAACAAATTTTCCTAATCTTTCTGTTCAAGCGCCATCTAC”, the binding signal (RPM ratio (pull-down/input)) amounted to 0.211. With “GATGATTGTTCTCCCAGCTGATGAATTCATCAGTTCGAGTAAACAAATTTTCCTAATCTTTCTGTTCAAGCGCCATCTAC”, the binding signal (RPM ratio (pull-down/input)) turned out to be 0.536.

For the sequence “GATGATTGTTCTCCCAGCTGATGAATTGTTGATCTCGAGTAAACAAATTTTCCTAATCTTTCTGTTCAAGCGCCATCTAC”, the binding signal (RPM ratio (pull-down/input)) was found to be 3.69. Consider “GATGATTGTTCTCCCAGCTGATGAATTGCCAACTTCGAGTAAACAAATTTTCCTAATCTTTCTGTTCAAGCGCCATCTAC”, for which the binding signal (RPM ratio (pull-down/input)) was 0.574.

On to “GATGATTGTTCTCCCAGCTGATGAATTTTGACTATCGAGTAAACAAATTTTCCTAATCTTTCTGTTCAAGCGCCATCTAC”, for which the binding signal (RPM ratio (pull-down/input)) was determined as 0.775. Regarding “GATGATTGTTCTCCCAGCTGATGAATTATCTGTCTCGAGTAAACAAATTTTCCTAATCTTTCTGTTCAAGCGCCATCTAC”, the binding signal (RPM ratio (pull-down/input)) was determined as 0.303. For the sequence “GATGATTGTTCTCCCAGCTGATGAATTGGGGGCGTCGAGTAAACAAATTTTCCTAATCTTTCTGTTCAAGCGCCATCTAC”, the binding signal (RPM ratio (pull-down/input)) was found to be 0.608. Turning to “GATGATTGTTCTCCCAGCTGATGAATTTAATATCTCGAGTAAACAAATTTTCCTAATCTTTCTGTTCAAGCGCCATCTAC”, the binding signal (RPM ratio (pull-down/input)) was determined as 2.23. “GATGATTGTTCTCCCAGCTGATGAATTTGATGGATCGAGTAAACAAATTTTCCTAATCTTTCTGTTCAAGCGCCATCTAC”: the binding signal (RPM ratio (pull-down/input)) is 0.718. For the sequence “GATGATTGTTCTCCCAGCTGATGAATTTCGTTTCTCGAGTAAACAAATTTTCCTAATCTTTCTGTTCAAGCGCCATCTAC”, the binding signal (RPM ratio (pull-down/input)) stood at 1.21. Regarding “GATGATTGTTCTCCCAGCTGATGAATTAGATGTATCGAGTAAACAAATTTTCCTAATCTTTCTGTTCAAGCGCCATCTAC”, the binding signal (RPM ratio (pull-down/input)) was 1.79.

As for “GATGATTGTTCTCCCAGCTGATGAATTTAGTAAGTCGAGTAAACAAATTTTCCTAATCTTTCTGTTCAAGCGCCATCTAC”, the binding signal (RPM ratio (pull-down/input)) came to 0.519. As to “GATGATTGTTCTCCCAGCTGATGAATTCGGCCTGTCGAGTAAACAAATTTTCCTAATCTTTCTGTTCAAGCGCCATCTAC”, the binding signal (RPM ratio (pull-down/input)) is 4.25. On to “GATGATTGTTCTCCCAGCTGATGAATTGGGTCGTTCGAGTAAACAAATTTTCCTAATCTTTCTGTTCAAGCGCCATCTAC”, for which the binding signal (RPM ratio (pull-down/input)) was 0.461. Take “GATGATTGTTCTCCCAGCTGATGAATTCATCGTCTCGAGTAAACAAATTTTCCTAATCTTTCTGTTCAAGCGCCATCTAC”: the binding signal (RPM ratio (pull-down/input)) was found to be 0.859.

Regarding “GATGATTGTTCTCCCAGCTGATGAATTTGATGCATCGAGTAAACAAATTTTCCTAATCTTTCTGTTCAAGCGCCATCTAC”, the binding signal (RPM ratio (pull-down/input)) worked out at 3.19. With “GATGATTGTTCTCCCAGCTGATGAATTTGCCGTCTCGAGTAAACAAATTTTCCTAATCTTTCTGTTCAAGCGCCATCTAC”, the binding signal (RPM ratio (pull-down/input)) is 1.17. In the case of “GATGATTGTTCTCCCAGCTGATGAATTATAACACTCGAGTAAACAAATTTTCCTAATCTTTCTGTTCAAGCGCCATCTAC” it was 0.809. With “GATGATTGTTCTCCCAGCTGATGAATTGTACCGATCGAGTAAACAAATTTTCCTAATCTTTCTGTTCAAGCGCCATCTAC”, the binding signal (RPM ratio (pull-down/input)) stood at 0.409. In the case of “GATGATTGTTCTCCCAGCTGATGAATTTTTAGAGTCGAGTAAACAAATTTTCCTAATCTTTCTGTTCAAGCGCCATCTAC” it was 0.245; in that of “GATGATTGTTCTCCCAGCTGATGAATTACTAGTGTCGAGTAAACAAATTTTCCTAATCTTTCTGTTCAAGCGCCATCTAC”, 0.523; in that of “GATGATTGTTCTCCCAGCTGATGAATTCGAATTTTCGAGTAAACAAATTTTCCTAATCTTTCTGTTCAAGCGCCATCTAC”, 0.527. Turning to “GATGATTGTTCTCCCAGCTGATGAATTAGCGTGGTCGAGTAAACAAATTTTCCTAATCTTTCTGTTCAAGCGCCATCTAC”, the binding signal (RPM ratio (pull-down/input)) worked out at 1.31. The result for “GATGATTGTTCTCCCAGCTGATGAATTATCCGACTCGAGTAAACAAATTTTCCTAATCTTTCTGTTCAAGCGCCATCTAC” reads 0.257; that for “GATGATTGTTCTCCCAGCTGATGAATTAAGGTATTCGAGTAAACAAATTTTCCTAATCTTTCTGTTCAAGCGCCATCTAC”, 1.02. For “GATGATTGTTCTCCCAGCTGATGAATTCCCAATGTCGAGTAAACAAATTTTCCTAATCTTTCTGTTCAAGCGCCATCTAC”, the binding signal (RPM ratio (pull-down/input)) came out at 0.285.
